This is an account of results in paper PMC12231567.

Chains of the proteins cited; added tags and fusions are not shown.
UniProt Q94AH6: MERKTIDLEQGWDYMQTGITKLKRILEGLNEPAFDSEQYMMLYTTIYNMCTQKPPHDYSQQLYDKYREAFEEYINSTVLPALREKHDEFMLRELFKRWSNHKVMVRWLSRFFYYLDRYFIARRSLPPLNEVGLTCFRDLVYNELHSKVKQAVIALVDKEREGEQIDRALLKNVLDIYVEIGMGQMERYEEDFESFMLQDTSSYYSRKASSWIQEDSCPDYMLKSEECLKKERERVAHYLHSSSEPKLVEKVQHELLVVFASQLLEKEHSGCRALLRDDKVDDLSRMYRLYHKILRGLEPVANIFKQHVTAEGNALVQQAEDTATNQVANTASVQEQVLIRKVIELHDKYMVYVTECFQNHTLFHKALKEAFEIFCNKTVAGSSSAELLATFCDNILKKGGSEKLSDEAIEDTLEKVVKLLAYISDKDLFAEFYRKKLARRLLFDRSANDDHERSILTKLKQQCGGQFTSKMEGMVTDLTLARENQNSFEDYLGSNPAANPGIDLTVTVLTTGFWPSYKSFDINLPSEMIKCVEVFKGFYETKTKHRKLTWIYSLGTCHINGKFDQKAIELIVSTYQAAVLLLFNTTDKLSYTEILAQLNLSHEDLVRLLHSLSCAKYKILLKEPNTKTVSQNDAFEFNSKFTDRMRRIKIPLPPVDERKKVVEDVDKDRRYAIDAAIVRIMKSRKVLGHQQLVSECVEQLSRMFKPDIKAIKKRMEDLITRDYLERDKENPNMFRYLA

Results are given in words; binding and its absence hold for the method and conditions named. For part of these data: In cells and extracts the contact can be indirect. Some results given as binding are weak or reduced against the parent protein; the word gives no strength. Sequences can lack the tags named with a protein.

In assay [1] the target is T1, αKNL2-N (N-terminal fragment of αKNL2, 1 to 363 aa) fused to the GAL4 DNA-binding domain (Arabidopsis thaliana) (UniProt F4KCE9).
T1 sequence: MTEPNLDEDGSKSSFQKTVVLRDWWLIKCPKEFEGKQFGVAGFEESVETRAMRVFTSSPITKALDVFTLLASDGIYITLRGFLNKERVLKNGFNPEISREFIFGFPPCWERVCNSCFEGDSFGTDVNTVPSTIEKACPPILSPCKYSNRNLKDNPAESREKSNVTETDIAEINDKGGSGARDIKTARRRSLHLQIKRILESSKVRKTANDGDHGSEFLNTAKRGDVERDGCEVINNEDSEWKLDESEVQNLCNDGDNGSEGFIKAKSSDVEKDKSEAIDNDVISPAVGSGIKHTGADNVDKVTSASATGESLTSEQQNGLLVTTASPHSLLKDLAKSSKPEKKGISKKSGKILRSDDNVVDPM
Nature of the assay: two-hybrid; cotransformation of pGBKT7 (BD, bait) and pGADT7 (AD, prey) into S. cerevisiae Y2H Gold; drop dilutions on -LT and -LTH (triple dropout) medium, 30 °C.

Assay [2] addresses T2, APC10 fused to a Venus fragment and HA (BiFC and Co-IP) (Arabidopsis thaliana) (UniProt Q9ZPW2).
T2 sequence: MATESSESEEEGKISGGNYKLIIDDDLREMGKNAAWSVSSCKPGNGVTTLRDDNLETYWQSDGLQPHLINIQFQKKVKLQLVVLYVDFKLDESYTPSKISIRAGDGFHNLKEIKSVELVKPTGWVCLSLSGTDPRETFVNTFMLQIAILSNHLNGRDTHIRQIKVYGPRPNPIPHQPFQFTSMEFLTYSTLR
Nature of the assay: split reporter; BiFC in N. benthamiana leaves co-infiltrated with A. tumefaciens GV3101 carrying the VENn and VENc fusions (both directions) and HC-Pro; Venus fluorescence in nuclei; some combinations also scored after MG115.

Assay [3] concerns the target T3, CUL3 fused to a Venus fragment (BiFC) (Arabidopsis thaliana) (UniProt Q9ZVH4).
T3 sequence: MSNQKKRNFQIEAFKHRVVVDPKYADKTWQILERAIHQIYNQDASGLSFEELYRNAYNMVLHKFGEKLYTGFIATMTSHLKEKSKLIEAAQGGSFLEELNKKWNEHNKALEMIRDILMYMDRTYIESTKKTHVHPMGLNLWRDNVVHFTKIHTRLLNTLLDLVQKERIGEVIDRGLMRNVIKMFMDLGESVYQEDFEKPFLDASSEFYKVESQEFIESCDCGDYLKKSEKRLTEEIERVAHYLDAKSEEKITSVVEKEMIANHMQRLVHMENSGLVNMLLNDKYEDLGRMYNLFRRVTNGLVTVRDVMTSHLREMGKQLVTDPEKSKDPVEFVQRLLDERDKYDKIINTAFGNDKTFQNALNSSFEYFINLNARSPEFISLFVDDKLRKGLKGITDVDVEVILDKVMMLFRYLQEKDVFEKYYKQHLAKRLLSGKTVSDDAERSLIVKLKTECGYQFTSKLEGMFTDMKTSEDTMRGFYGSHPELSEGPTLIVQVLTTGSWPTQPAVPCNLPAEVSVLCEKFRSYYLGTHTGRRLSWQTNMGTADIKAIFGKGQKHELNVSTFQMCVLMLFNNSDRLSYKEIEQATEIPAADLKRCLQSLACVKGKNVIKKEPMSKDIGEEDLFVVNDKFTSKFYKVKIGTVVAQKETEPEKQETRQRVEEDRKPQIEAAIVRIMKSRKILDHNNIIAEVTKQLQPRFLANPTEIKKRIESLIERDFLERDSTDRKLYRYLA
Described as above.

Assay [4] has as its target CUL1 fused to a Venus fragment (BiFC) (Arabidopsis thaliana) (UniProt Q94AH6). The assay is described as above.
Assay [5] has as its target T4, CDC20.1 fused to a Venus fragment and HA (BiFC and Co-IP) (Arabidopsis thaliana) (UniProt Q9SZA4).
T4 sequence: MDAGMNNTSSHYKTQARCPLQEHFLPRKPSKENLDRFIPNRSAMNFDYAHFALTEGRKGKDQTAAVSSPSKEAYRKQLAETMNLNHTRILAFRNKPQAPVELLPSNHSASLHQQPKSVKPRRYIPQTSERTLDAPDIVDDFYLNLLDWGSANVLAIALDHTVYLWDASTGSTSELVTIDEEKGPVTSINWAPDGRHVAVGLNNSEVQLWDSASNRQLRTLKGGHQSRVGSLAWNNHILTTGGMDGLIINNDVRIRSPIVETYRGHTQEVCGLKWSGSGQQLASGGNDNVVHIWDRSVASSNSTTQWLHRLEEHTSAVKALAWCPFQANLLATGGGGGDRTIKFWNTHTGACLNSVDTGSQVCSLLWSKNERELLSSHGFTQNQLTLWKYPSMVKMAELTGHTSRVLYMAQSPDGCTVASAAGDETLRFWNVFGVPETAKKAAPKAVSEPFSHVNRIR
The assay is described as above.

Assay [6] addresses T5, APC2 fused to a Venus fragment (BiFC) (Arabidopsis thaliana) (UniProt Q8H1U5).
T5 sequence: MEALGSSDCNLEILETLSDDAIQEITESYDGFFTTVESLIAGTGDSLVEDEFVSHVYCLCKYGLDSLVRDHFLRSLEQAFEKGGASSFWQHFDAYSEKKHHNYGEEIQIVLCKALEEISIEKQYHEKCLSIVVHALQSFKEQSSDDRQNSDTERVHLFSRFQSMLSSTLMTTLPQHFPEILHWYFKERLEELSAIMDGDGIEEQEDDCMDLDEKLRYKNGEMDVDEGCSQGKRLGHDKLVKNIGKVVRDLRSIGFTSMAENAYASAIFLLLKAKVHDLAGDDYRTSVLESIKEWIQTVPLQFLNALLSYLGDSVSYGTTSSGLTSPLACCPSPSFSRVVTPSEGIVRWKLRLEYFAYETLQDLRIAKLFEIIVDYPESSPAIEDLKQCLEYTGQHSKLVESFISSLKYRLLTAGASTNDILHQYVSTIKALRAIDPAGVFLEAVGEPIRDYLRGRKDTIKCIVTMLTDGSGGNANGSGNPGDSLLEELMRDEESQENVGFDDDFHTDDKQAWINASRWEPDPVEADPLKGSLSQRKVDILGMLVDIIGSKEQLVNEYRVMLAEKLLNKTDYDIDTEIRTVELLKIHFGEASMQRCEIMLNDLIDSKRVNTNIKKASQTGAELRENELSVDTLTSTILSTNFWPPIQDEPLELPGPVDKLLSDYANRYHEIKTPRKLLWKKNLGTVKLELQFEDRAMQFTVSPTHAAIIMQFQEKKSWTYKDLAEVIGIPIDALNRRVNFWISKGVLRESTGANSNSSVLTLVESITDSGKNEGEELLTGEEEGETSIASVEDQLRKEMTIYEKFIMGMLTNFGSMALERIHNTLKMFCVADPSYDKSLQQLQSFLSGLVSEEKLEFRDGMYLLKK
The description is as above.

The target of assay [7] is T2, APC10 fused to a Venus fragment and HA (BiFC and Co-IP) (Arabidopsis thaliana). Nature of the assay: co-IP; CDC20.1-HA or APC10-HA coexpressed with αKNL2-C-cMYC in N. benthamiana leaves; total protein extracts precipitated with HA magnetic beads; blot with anti-cMYC and anti-HA.
In assay [8] the target is T4, CDC20.1 fused to a Venus fragment and HA (BiFC and Co-IP) (Arabidopsis thaliana). Described as above.
Assay [9] deals with T6, UBC20 fused to a Venus fragment (BiFC) (Arabidopsis thaliana) (UniProt Q8L7T3).
T6 sequence: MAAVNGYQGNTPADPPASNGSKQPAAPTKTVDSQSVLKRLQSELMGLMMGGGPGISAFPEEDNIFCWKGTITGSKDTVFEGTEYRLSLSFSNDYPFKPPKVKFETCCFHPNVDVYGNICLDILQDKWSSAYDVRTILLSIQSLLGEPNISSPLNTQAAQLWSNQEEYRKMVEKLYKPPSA
Briefly: split reporter; BiFC in N. benthamiana leaves co-infiltrated with A. tumefaciens GV3101 carrying the VENn and VENc fusions (both directions) and HC-Pro; Venus fluorescence in nuclei; some combinations also scored after MG115.

The target in assay [10] is T7, UBC19 fused to a Venus fragment (BiFC) (Arabidopsis thaliana) (UniProt Q9LJZ5).
T7 sequence: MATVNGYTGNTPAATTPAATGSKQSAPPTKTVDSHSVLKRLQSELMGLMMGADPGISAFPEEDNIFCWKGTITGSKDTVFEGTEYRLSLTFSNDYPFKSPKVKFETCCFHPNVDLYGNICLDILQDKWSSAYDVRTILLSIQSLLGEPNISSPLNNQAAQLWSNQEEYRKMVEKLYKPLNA
The assay is described as above.

B1: APC2 fused to the GAL4 activation domain (protein, UniProt Q8H1U5 1-865)
chain: MEALGSSDCNLEILETLSDDAIQEITESYDGFFTTVESLIAGTGDSLVEDEFVSHVYCLCKYGLDSLVRDHFLRSLEQAFEKGGASSFWQHFDAYSEKKHHNYGEEIQIVLCKALEEISIEKQYHEKCLSIVVHALQSFKEQSSDDRQNSDTERVHLFSRFQSMLSSTLMTTLPQHFPEILHWYFKERLEELSAIMDGDGIEEQEDDCMDLDEKLRYKNGEMDVDEGCSQGKRLGHDKLVKNIGKVVRDLRSIGFTSMAENAYASAIFLLLKAKVHDLAGDDYRTSVLESIKEWIQTVPLQFLNALLSYLGDSVSYGTTSSGLTSPLACCPSPSFSRVVTPSEGIVRWKLRLEYFAYETLQDLRIAKLFEIIVDYPESSPAIEDLKQCLEYTGQHSKLVESFISSLKYRLLTAGASTNDILHQYVSTIKALRAIDPAGVFLEAVGEPIRDYLRGRKDTIKCIVTMLTDGSGGNANGSGNPGDSLLEELMRDEESQENVGFDDDFHTDDKQAWINASRWEPDPVEADPLKGSLSQRKVDILGMLVDIIGSKEQLVNEYRVMLAEKLLNKTDYDIDTEIRTVELLKIHFGEASMQRCEIMLNDLIDSKRVNTNIKKASQTGAELRENELSVDTLTSTILSTNFWPPIQDEPLELPGPVDKLLSDYANRYHEIKTPRKLLWKKNLGTVKLELQFEDRAMQFTVSPTHAAIIMQFQEKKSWTYKDLAEVIGIPIDALNRRVNFWISKGVLRESTGANSNSSVLTLVESITDSGKNEGEELLTGEEEGETSIASVEDQLRKEMTIYEKFIMGMLTNFGSMALERIHNTLKMFCVADPSYDKSLQQLQSFLSGLVSEEKLEFRDGMYLLKK
With B1, the binding result in [1] is on record as “binds”.

B2: αKNL2, full length, fused to a Venus fragment (BiFC) (protein, UniProt F4KCE9 1-598)
chain: MTEPNLDEDGSKSSFQKTVVLRDWWLIKCPKEFEGKQFGVAGFEESVETRAMRVFTSSPITKALDVFTLLASDGIYITLRGFLNKERVLKNGFNPEISREFIFGFPPCWERVCNSCFEGDSFGTDVNTVPSTIEKACPPILSPCKYSNRNLKDNPAESREKSNVTETDIAEINDKGGSGARDIKTARRRSLHLQIKRILESSKVRKTANDGDHGSEFLNTAKRGDVERDGCEVINNEDSEWKLDESEVQNLCNDGDNGSEGFIKAKSSDVEKDKSEAIDNDVISPAVGSGIKHTGADNVDKVTSASATGESLTSEQQNGLLVTTASPHSLLKDLAKSSKPEKKGISKKSGKILRSDDNVVDPMNYSGTKVKSAENKRKIDASKLQSPTSNVAEHSKEGLNNAKSNDVEKDVCVAINNEVISPVKGFGKRLSGTDVERLTSKNATKESLTSVQRKGRVKVSKAFQDPLSKGKSKKSEKTLQSNSNVVEPMNHFRSEAEEAEENLSWEKIKRKIDFDVEVTPEKKVKQQKTNAASTDSLGQKRSRSGRVLVSSLEFWRNQIPVYDMDRNLIQVKDGSETNSAPSKGKGSDSRKRRNLKIK
In the case of B2, the binding entry was “binds” in [2]; “no binding” in assay [3]; “no binding” in assay [4]; “binds” in assay [5]; “binds” in [6].

B3: αKNL2-C (364 to 599 aa) fused to a Venus fragment and cMYC (BiFC and Co-IP) (domain or fragment, UniProt F4KCE9 364-598)
chain: NYSGTKVKSAENKRKIDASKLQSPTSNVAEHSKEGLNNAKSNDVEKDVCVAINNEVISPVKGFGKRLSGTDVERLTSKNATKESLTSVQRKGRVKVSKAFQDPLSKGKSKKSEKTLQSNSNVVEPMNHFRSEAEEAEENLSWEKIKRKIDFDVEVTPEKKVKQQKTNAASTDSLGQKRSRSGRVLVSSLEFWRNQIPVYDMDRNLIQVKDGSETNSAPSKGKGSDSRKRRNLKIK
Regarding B3, the binding result is on record as “binds” in assay [7]; “binds” in assay [8]; “binds” in assay [2]; “no binding” in assay [9]; “no binding” in [3]; “no binding” in assay [10]. In addition, the binding entry was “no binding” in [4], “binds” in assay [5] and “binds” in assay [6].
